Test results reported in the RNAGym collection of RNA variant scans (doi:10.1101/gad.245936.114).
Variants at the floor of the assay are shown more often than the library holds them.

B1: tRNA (parent)
chain: CUCUCGGUAGCCAAGUUGGUUUAAGGCGCAAGACUUUAAUUUAUCACUACGAAAUCUUGAGAUCGGGCGUUCGACUCGCCCCCGGGAGAUUUUUUCCUCGAGCAA

Variants of: B1
Assay: nonsense suppression (GFP-seq) (ratio to wild type); higher = more function; SUP4oc tRNA, yeast GFP reporter sort-seq
Method in brief: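 Yeast were grown in raffinose/galactose medium with 80 mg/L adenine, each strain bearing a genome-integrated ochre-suppressor tRNA variant from a ~3% random-mutation library, a galactose-driven GFP ochre reporter, and RFP. After sorting into GFP/RFP bins, every bin was sequenced on an Illumina platform at phred ≥30. The GFPSEQ value, a measure of nonsense suppression, is the weighted bin median GFP/RFP relative to the unmutated parent tRNA, using each variant's estimated cell share per bin as the weight. Only variants with ≥100 reads and ≥30 cells were included.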

Going from CUCUCGGUAGCCAAGUUGGUUUAAGGCGCAAGACUUUAAUUUAUCACUACGAAAUCUUGCGAUCGGGCGUGCGCCUUGCCCCCGGGAGAUUUUUUCCUCGAGCAA [A60C U71G A74C C77U] to CUCUCGGUAGCCAAGUUGGUUUAAGGCGCAAGACUUUAAUUUAUCACUACGAAAUCUUGCGAUCGGGCGUUCUACUCGCCCCCGGGAGAUUUUUUCCUCGAGCAA [A60C G73U], the nonsense suppression rises from at most 0.026 to 0.049.

Going from CUCUCGGUAGCCAAGUUGGUUUAAGGCGCAAGACUUUAAUUUAUCACUACGAAAUCUUUAGAUAGGGCGCUCGACUCGCCCCCGGGAGAUUUUUUCCUCGAGCAA [G59U C64A U70C] to CUCUCGGUAGCCAAGUUGGUUUAAGGCGCAAGACUUUAAUUUAUCACUACGAAAUCUUGGGAUCGGGCGUUCGACUCGCCCCCGAGAGAUUUUUUCCUCGAGCAA [A60G G85A], the nonsense suppression rises from at most 0.026 to 1.16.

CUCUCGGUAGCCAAGUUGGUUUAAGGCGCAAGACUUUAAUUUAUCACUACGAAAUCUUUAGAUCGGGCGUUCGACGCGCCCCCGGCAGAUUUUUUCCUCGAGCAA [G59U U76G G86C] and CUCUCGGUAGCCAAGUUGGUUUAAGGCGCAAGACUUUAAUUUAUCACUACGAAAUCUUGCGAUCGGGCGUUCGACUCGCCACCGGGAGAUUUUUUCCUCGAGCAA [A60C C81A] cannot be ordered by nonsense suppression: at most 0.026 for the first, at most 0.026 for the second.

CUCUCGGUAGCCAAGUUGGUUUAAGGCGCAAGACUUUAAUUUAUCACUACGAAAUCUUGCGAUCGGCCGUUCGACUCGCCCCCAGGAGAUUUUUUCCUCGAGCAA [A60C G67C G84A] and CUCUCGGUAGCCAAGUUGGUUUAAGGCGCAAGACUUUAAUUUAUCACUACGAAAUCUUUAGAUCGGGCGUUCGACUCGUCCCCGGGAGAUUUUUUCCUCGAGCAA [G59U C79U] cannot be ordered by nonsense suppression: at most 0.026 for the first, at most 0.026 for the second.

Compared with CUCUCGGUAGCCAAGUUGGUUUAAGGCGCAAGACUUUAAUUUAUCACUACGAAAUCUUGCGUUCGGGCGUUCGACUCGCCCCCGGGAGAUUUUUUCCUCGAGCAA [A60C A62U], CUCUCGGUAGCCAAGUUGGUUUAAGGCGCAAGACUUUAAUUUAUCACUACGAAAUCUUUAGAUCGCGCGUCCGACUCGCCCCCGGGAGAUUUUUUCCUCGAGCAA [G59U G66C U71C] is lower in nonsense suppression: 0.0785 for the first, at most 0.026 for the second.

CUCUCGGUAGCCAAGUUGGUUUAAGGCGCAAGACUUUAAUUUAUCACUACGAAAUCUUGGGAUCGGGCUUUCGACUCGGCCCCGGGAGAUUUUUUCCUCGAGCAA [A60G G69U C79G] and CUCUCGGUAGCCAAGUUGGUUUAAGGCGCAAGACUUUAAUUUAUCACUACGAAAUCUUGCGAUAGGGCGUUCGACUCGCCCCAGGGAGAUUUUUUCCUCGAGCAA [A60C C64A C83A] cannot be ordered by nonsense suppression: at most 0.026 for the first, at most 0.026 for the second.

Going from CUCUCGGUAGCCAAGUUGGUUUAAGGCGCAAGACUUUAAUUUAUCACUACGAAAUCUUUAGACCGGGCGUUCGACUCGCCCCCGGGAGAUUUUUUCCUCGAGCAA [G59U U63C] to CUCUCGGUAGCCAAGUUGGUUUAAGGCGCAAGACUUUAAUUUAUCACUACGAAAUCUUGGGAUCGGGCGUUCGACUCGCCCACGGGAGAUUUUUUCCUCGAGCAA [A60G C82A], the nonsense suppression falls from 0.868 to 0.0331.

CUCUCGGUAGCCAAGUUGGUUUAAGGCGCAAGACUUUAAUUUAUCACUACGAAAUCUUGCGCACGGGCGUUCGACUCGCCCCCGGGAGAUUUUUUCCUCGAGCAA [A60C A62C U63A] and CUCUCGGUAGCCAAGUUGGUUUAAGGCGCAAGACUUUAAUUUAUCACUACGAAAUCUUUAGAUCGGGCGUUCGACUCGCCCCUGGGAGAUUUUUUCCUCGAGCAA [G59U C83U] cannot be ordered by nonsense suppression: at most 0.026 for the first, at most 0.026 for the second.

CUCUCGGUAGCCAAGUUGGUUUAAGGCGCAAGACUUUAAUUUAUCACUACGAAAUCUUGGGAUCGGGCGUUCCACUCGCCCCCGGGAGAUUUUUUCCUCGAGCAA [A60G G73C] and CUCUCGGUAGCCAAGUUGGUUUAAGGCGCAAGACUUUAAUUUAUCACUACGAAAUCUUUAGAUCGGUCGUUCGACUCGCCCCCGGGAGAUUUUUUCCUCGAGCAA [G59U G67U] cannot be ordered by nonsense suppression: at most 0.026 for the first, at most 0.026 for the second.

First: CUCUCGGUAGCCAAGUUGGUUUAAGGCGCAAGACUUUAAUUUAUCACUACGAAAUCUUGGGAUCGGGCAUUCGACUCGCCCCCGGGAGAUUUUUUCCUCGAGCAA [A60G G69A]
Second: CUCUCGGUAGCCAAGUUGGUUUAAGGCGCAAGACUUUAAUUUAUCACUACGAAAUCUUGGGAUCGGGCGUUCGACUCGGCCCCGGGAGAUUUUUUCCUCGAGCAA [A60G C79G]
The nonsense suppression of the first is higher: 0.0526 for the first, at most 0.026 for the second.

Compared with CUCUCGGUAGCCAAGUUGGUUUAAGGCGCAAGACUUUAAUUUAUCACUACGAAAUCUUGGGAUCGGGCGUUCGACUCGCCCCCGGUAGAUUUUUUCCUCGAGCAA [A60G G86U], CUCUCGGUAGCCAAGUUGGUUUAAGGCGCAAGACUUUAAUUUAUCACUACGAAAUCUUGCGAUCGGGCGUUCGACUCGACCCCGGGAGAUUUUUUCCUCGAGCAA [A60C C79A] is lower in nonsense suppression: 0.0427 for the first, at most 0.026 for the second.

CUCUCGGUAGCCAAGUUGGUUUAAGGCGCAAGACUUUAAUUUAUCACUACGAAAUCUUGGAAUCGGGCGUUAGACUCGCCCCCGGGAGAUUUUUUCCUCGAGCAA [A60G G61A C72A] and CUCUCGGUAGCCAAGUUGGUUUAAGGCGCAAGACUUUAAUUUAUCACUACGAAAUCUUGCGAUCGGGCUGUCGACUCGCCCCAGGGAGAUUUUUUCCUCGAGCAA [A60C G69U U70G C83A] cannot be ordered by nonsense suppression: at most 0.026 for the first, at most 0.026 for the second.

CUCUCGGUAGCCAAGUUGGUUUAAGGCGCAAGACUUUAAUUUAUCACUACGAAAUCUUGCGAUCGGGCGUUCGACUCGCCCCCGGCAGAUUUUUUCCUCGAGCAA [A60C G86C] and CUCUCGGUAGCCAAGUUGGUUUAAGGCGCAAGACUUUAAUUUAUCACUACGAAAUCUUGCGAUCGGGCGUUCGCAUCGCCCCCGGGAGAUUUUUUCCUCGAGCAA [A60C A74C C75A] cannot be ordered by nonsense suppression: at most 0.026 for the first, at most 0.026 for the second.

CUCUCGGUAGCCAAGUUGGUUUAAGGCGCAAGACUUUAAUUUAUCACUACGAAAUCUUGCGAUCGGGCGUUCGACUCGCCACCGGGUGAUUUUUUCCUCGAGCAA [A60C C81A A87U] showed a nonsense suppression of at most 0.026.
